In PubChem BioAssay AID1508624 (National Center for Advancing Translational Sciences (NCATS), 2021):
About 120 (0.25%) of roughly 48,000 compounds were called active. Roughly 4% stayed inconclusive and do not appear here. Calls come from the whole dose curve; as a rule, active = well fitted activation curve with a large enough effect; inconclusive = small, poorly fitted or top-dose-only effect, or another doubt; inactive = no such curve, though single readings can be large or run the other way. Some of the results follow.

Experiment: Primary qHTS for Identification of Small Molecule Activators of Huntingtin-Antisense Promoter Activity; note: nearly all actives have a fitted effect of over 55% in size
Settings: HEK293 HTT-AS promoter firefly luciferase reporter, 24 h; series mostly up to 57.5 µM; activity change, positive = activation: at the top concentration
In short: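 Quantitative HTS used concentration series of up to 57.5 uM final on HEK293 luciferase reporter cells, 24 h at 37 degrees C. Readout was Dual-Glo firefly luminescence.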

Compound | activity change, positive = activation
COc1ccc(NC(=O)c2cc(S(=O)(=O)N3CCCC3)ccc2OC)cc1 | inactive: 7.07%
CC(C)Cc1nn2c(=O)cc(COC(=O)c3ccc(NC(=O)C4CCCCC4)cc3)nc2s1 | inactive: -1.22%
CCOc1ccccc1NC(=O)c1ccc(F)c(S(=O)(=O)N2CCN(c3ccc(F)cc3)CC2)c1 | inactive: -22.4%
CCOc1ccc(C(=O)NCC(c2cccs2)S(=O)(=O)c2ccccc2)cc1 (stereo not drawn) | inactive: -23.6%
COc1ccc(Nc2nc3ccc(Cl)cc3nc2-n2nc(C)cc2C)cc1 | inactive: -3.31%
Cc1cccc(C)c1NC(=O)c1ccccc1C(=O)O | inactive: -2.28%
CCOc1ccc(NC(=O)c2cc(C)nc3c2c(C)nn3-c2ccc(C)cc2)cc1 | inactive: -1.36%
Cc1cccc(C(=O)N2CCc3cc(CNC(=O)CSc4ccccc4)ccc32)c1 | inactive: -0.26%
CCOc1ccc(C(=O)NCCSc2c(C)[nH]c3ccccc23)cc1OCC | inactive: -21%
COc1cccc(-n2c(SCc3ccc(F)cc3)nc3c([nH]c4ccccc43)c2=O)c1 | inactive: -27.1%
COC(=O)c1ccc(NC(=O)CN(C)S(=O)(=O)c2ccc(Br)s2)cc1 | inactive: -19.6%
COc1ccc(Cn2ccnc2SCC(=O)Nc2nnc(C)s2)cc1 | inactive: -13.3%
Cc1nn2c(C)c(C(=O)NCc3ccc(OC(C)C)cc3)cnc2c1-c1ccc(F)cc1 | inactive: -8.66%
CCN(CCCNC(=O)c1nn(-c2ccc(C)cc2)c(=O)c2c1c1ccccc1n2C)c1cccc(C)c1 | inactive: 6.92%
Cc1cccc(NC(=O)CN2C(=O)C(c3ccc(F)cc3)=NC23CCCCCC3)c1 | inactive: -30.3%
CCn1c(=O)cc(OCC(=O)N2CCN(c3cccc(C)c3C)CC2)c2ccccc21 | inactive: -0.155%
COc1cccc(CNC(=O)CN2C(=O)COc3ccc(S(=O)(=O)N4CCOCC4)cc32)c1 | inactive: 0.464%
Cc1ccc2c(c1)-c1c(c(C(=O)N3CCN(c4cc(C)ccc4C)CC3)nn1C)CS2 | inactive: -17.2%
O=C(O)Cn1c(C(=O)Nc2nc(-c3ccccc3Cl)cs2)cc2ccccc21 | inactive: -3.22%
Cc1ccc(CNC(=O)c2ccc(N3CCCC3)c(NC(=O)Nc3ccc(F)c(Cl)c3)c2)cc1 | inactive: 7.27%
CC(=O)c1c(C)oc2c1cc(NS(=O)(=O)c1ccc(C(C)(C)C)cc1)c1ccccc12 | inactive: -26.3%
COc1ccc(NC(=O)Cn2c(=O)c3ccccc3n3nncc23)c(OC)c1 | inactive: -5.11%
Cc1ccc(CNC(=O)C(C)n2nc(C)c3sc4ccccc4c3c2=O)cc1 (stereo not drawn) | inactive: -23.6%
COc1cc2c(cc1OC)[C@@H]1CC(=O)[C@@H](CC(C)C)CN1CC2 | inactive: -1.22%

Compound | activity change, positive = activation
C[C@](N)(Cc1ccc(O)cc1)C(=O)O | inactive: -4.34% [at 6 µM, percent change from vehicle, -100% = no light]
Cc1cc(NC(=O)Nc2nnc(N3CCCCCC3)s2)ccc1Br | inactive: 22.2%
Cc1ccc(-c2nn(-c3ccccc3)c3c2cnc2ccccc23)cc1C | inactive: -8.8%
CNC(=O)c1c(-c2ccc(F)cc2)oc2cc(N(CCO)S(C)(=O)=O)c(C3CC3)cc12 | inactive: -36.6%
CC(C)c1ccc(NS(=O)(=O)c2cc(Br)cc3c2N(C(=O)C2CC2)CC3)cc1 | inactive: -53.4%
COc1ccc(OC)c(-c2noc(N3CCN(c4ccc(Cl)cc4)CC3)n2)c1 | inactive: -28.5%
Cn1cnc(S(=O)(=O)N2CCCC(C(=O)NCc3ccc(F)cc3)C2)c1 (stereo not drawn) | inactive: -6.74%
Cc1ccc(S(=O)(=O)N(CCc2ccccc2)CC(=O)Nc2ccccc2C)cc1 | inactive: -33.3%
NNC(=O)CP(=O)(c1ccccc1)c1ccccc1 | inactive: -4.62%
CCOc1ccc(NC(=O)C(=O)NCCc2csc(-c3ccc(C(F)(F)F)cc3)n2)cc1 | inactive: -4.34%
Cc1ccc(C(=O)N2CCn3c4c(c5cc(C)ccc53)CCCC42)cc1 (stereo not drawn) | inactive: -24%
COc1ccc(CCNC(=O)c2ccc3c(c2)N(Cc2ccccc2)CCS3)cc1OC | inactive: -32.3%
Cc1ccccc1CNC(=O)CSc1nnc(C)c2c(C)n(-c3ccccc3)nc12 | inactive: -26.1%
COc1ccccc1CNC(=O)c1cc2c(s1)-c1ccc(Cl)cc1SC2 | inactive: 9.18%
O=C(COc1ccc(Cl)cc1)Nc1nnc(S(=O)(=O)N2CCCCCC2)s1 | inactive: -21.2%
CCOc1cccc(CC(=O)N2CCc3c([nH]c4ccc(OC)cc34)C2c2ccc(F)cc2)c1OCC (stereo not drawn) | inactive: -32%
CCCCOc1ccc(C2C(C(=O)Nc3ccccc3OC)=C(C)Nc3nnnn32)cc1OC (stereo not drawn) | inactive: 5.5% [at 11.5 µM, percent change from vehicle, -100% = no light]
Cc1ccn2c(Nc3ccc4c(c3)OCCO4)c(-c3ccccc3O)nc2c1 | inactive: 1.26%
Cc1ccc(S(=O)(=O)n2nc(C)c(S(=O)(=O)N3CCCCCC3)c2C)cc1C | inactive: -8.93%
COc1ccccc1N1CCN(C(CNC(=O)C(=O)NCc2cccnc2)c2cccnc2)CC1 (stereo not drawn) | inactive: -29.2%
CCN(CC)CCCNC(=O)CCC(=O)NNc1nc2ccccc2c2nc(C)nn12 | inactive: -6.63%
Cn1cc(-c2cnn3c(N)c(Br)c([C@H]4CCCNC4)nc23)cn1 | inactive: -31%
COc1cccc(CNC(=O)c2c(C)oc3ncnc(N4CCOCC4)c23)c1 | inactive: -18.9%
COc1ccc(N2CCN(C(=O)C3Cc4ccccc4N3C(C)=O)CC2)cc1 (stereo not drawn) | inactive: -23.2%
